Assay results published in PubChem BioAssay AID493208 (National Center for Advancing Translational Sciences (NCATS), 2011).
Screen size: about 44,000 compounds; about 340 (0.77%) were called active. Inconclusive results (about 5%) are left out. Calls follow the shape of the dose curve; as a rule, active = well fitted inhibition curve with a large enough effect; inconclusive = small, poorly fitted or top-dose-only effect; inactive = flat fitted curve, though single readings scatter. This is one part of the list.

Assay: Acumen qHTS Assay for Inhibitors of the mTORC1 Signaling Pathway in MEF (Tsc2-/-, p53-/-) Cells: Sytravon;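 also: plate controls were DMSO for no effect and rapamycin for full effect; nearly all actives have a fitted effect of over 50% in size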
Details: phospho-rpS6 immunofluorescence/PI, 24 h; series mostly up to 38.3 µM; activity change, negative = inhibition: at the top concentration
Summary of the method: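 Compounds act on Tsc2-/-, p53-/- fibroblasts carrying an empty vector for 24 h before fixation and dual staining for phospho-S6 and DNA (propidium iodide). Values are percentages of cells above a rapamycin-defined pS6/PI threshold.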

Structure (SMILES)	activity change, negative = inhibition
CCOC(=O)c1c(NC(=O)CSc2cn(CCNC(=O)c3c(F)cccc3F)c3ccccc23)sc2c1CCCC2	inactive: -2.13%
CCOCCc1nn2c(=O)cc(COC(=O)c3cccc(C)c3)nc2s1	inactive: -3.6%
Cc1ccc(-c2cc(C(=O)Nc3c(C(=O)c4ccc(C)c(F)c4)oc4ccccc34)no2)cc1	inactive: -3.24%
Cc1ccc(C)c(N2CCN(C(=O)C3CCCN(S(=O)(=O)c4cccc5nonc45)C3)CC2)c1 (stereo not given)	inactive: -8.87%
COc1ccc(S(=O)(=O)NCCc2sc(-c3ccccc3)nc2C)cc1F	inactive: -9.24%
Cc1ccc(Cl)cc1N1CCN(S(=O)(=O)c2ccc(-c3cnc(C4CC4)o3)cc2)CC1	inactive: 0.93%
CC(=O)c1ccc(NC(=O)c2cc(C3CC3)nc3c2c(C)nn3-c2ccc(C)cc2)cc1	inactive: -2.52%
COc1ccc(C(=O)N2CCN(C(=O)COc3ccc(C)cc3)CC2)cc1OC	inactive: 1.46%
CC(C)c1ccc(NC(=O)CN2C(=O)CCc3cc(S(=O)(=O)N4CCOCC4)ccc32)cc1	inactive: 23.1%
O=C(Nc1ccccc1F)C(Cc1ccccc1)N1Cc2ccccc2C1=O (stereo not given)	inactive: 1.85%
O=C(Cn1cc(S(=O)(=O)N2CCN(c3ccccc3F)CC2)c2ccccc2c1=O)Nc1ccc(F)cc1Cl	inactive: -19%
COc1ccc(S(=O)(=O)NCCc2sc(-c3cccc(F)c3)nc2C)cc1	inactive: 3.85%
COc1cc2c(C(=O)N3CCN(c4cc(Cl)ccc4C)CC3)cn(CC(C)C)c(=O)c2cc1OC	inactive: 8.44%
CCCOc1ccc(-c2cccc(NS(=O)(=O)c3ccc(CC)cc3)c2)nn1	inactive: 1.52%
COc1ccc(NC(=O)CN2CCN(c3ccccc3F)CC2)c(OC)c1	inactive: 0.333%
Cc1cc(C)c(NC(=O)CN(C)S(=O)(=O)c2ccc3c(c2)c(=O)n(C)c(=O)n3C)c(C)c1	inactive: -0.821%
CCC1=C(c2ccc(C)cc2)S(=O)(=O)N=C1N1CCC(C(=O)NCc2ccc(C)cc2)CC1	inactive: -0.309%
Cc1ccc(NC(=O)CSc2nccn2Cc2ccc3c(c2)OCO3)c(C)c1	inactive: 1.97%
CCC(C)NC(=O)CCC(=O)NNc1nc2ccccc2c2nc(C)nn12 (stereo not given)	inactive: 2.02%
CCCSCCCNC(=O)CN1C(=O)CCn2nc(-c3cn(C)c4ccccc34)cc21	inactive: 0.458%
COc1cc(NS(=O)(=O)c2ccc(NC(=O)c3ccc(OC)c(Br)c3)cc2)nc(OC)n1	inactive: 8.75%
Cc1ccc(-c2nn3c(=O)cc(CN4CCN(C(=O)c5ccc(C(C)(C)C)cc5)CC4)nc3s2)cc1	inactive: 2.67%
COCCn1c(=NC(=O)c2ccc3c(c2)OCCO3)sc2cc(NC(C)=O)ccc21	inactive: 1.4%
CCc1ccc(S(=O)(=O)n2ccnc2)cc1	inactive: 0%

Structure (SMILES)	activity change, negative = inhibition
O=C(Nc1ccc(F)cc1F)N1CCc2c(sc3c2CCCC3)C1c1ccc(F)cc1 (stereo not given)	inactive: 0%
COc1ccc(-c2nc3sc(CCNS(=O)(=O)c4c(C)cc(C)cc4C)c(C)n3n2)cc1	inactive: 0.206%
COc1cc(Cl)c(C)cc1Nc1nnc(-n2nc(C)cc2C)c2ccccc12	inactive: 0%
CCc1cccc(NC(=O)C(Cc2ccccc2)NS(=O)(=O)c2ccc3c(c2)c(=O)n(C)c(=O)n3C)c1 (stereo not given)	inactive: -6.72%
Cc1cc(SCC(=O)Nc2nsc(-c3ccc(C(C)(C)C)cc3)n2)nc2ccccc12	inactive: -11.8%
COc1cccc(N2CCN(C(=O)c3c4c(nc5ccccc35)C(=O)N(C3CCCCC3)C4)CC2)c1	inactive: 4.97%
COc1cccc(NC(=O)C2CCCN2S(=O)(=O)c2ccc3nc(-c4ccccc4)[nH]c3c2)c1 (stereo not given)	inactive: -3.94%
COc1ccc(OCc2nc(C#N)c(NCc3ccccc3Cl)o2)cc1	inactive: -14.1%
CC(=O)Nc1cccc(NC(=O)Cc2csc(COc3cccc(C)c3)n2)c1	inactive: -0.687%
CCOC(=O)N1CCc2c(sc3c2c(=O)n(-c2ccc(CC)cc2)c(=O)n3Cc2cccc(OC)c2)C1	inactive: 1.81%
CCOc1ccc(C(=O)Nc2ccc3c(c2)N(C(C)=O)CCC3)cc1OCC	inactive: 22.9%
CCc1ccc(S(=O)(=O)N(C(C)=O)c2ccc3oc4c(c3c2)CCCC4)cc1	inactive: -16.3%
CCC(C(=O)Nc1cc(C)ccc1OC)n1nnc(C(=O)OC)c1C(=O)OC (stereo not given)	inactive: 5.86%
CCOc1ccc(C2c3c(oc4cc(C)c(C)cc4c3=O)C(=O)N2c2ccccn2)cc1 (stereo not given)	inactive: -0.551%
COc1ccc(NS(=O)(=O)c2ccc3c(c2)NC(=O)CCS3)c(OC)c1	inactive: -14.2%
Cc1ccc(-n2nc3c(N4CCC(C(=O)N(C)Cc5ccccc5)CC4)nnc(C)c3c2C)cc1	inactive: -0.65%
Cc1ccc(C)c(S(=O)(=O)n2nc(C)c(S(=O)(=O)N3CCC(C)CC3)c2C)c1	inactive: -1.83%
CC(=O)Nc1ccc(S(=O)(=O)Nc2nc3n(n2)C(c2ccccc2)C=C(c2ccc(Cl)cc2)N3)cc1 (stereo not given)	inactive: -0.133%
O=C(NCCN1CCCCC1)c1ccc(Cn2c(SCc3ccc(F)cc3)nc3cccnc32)cc1	inactive: -9.67%
CN(C)c1ccc(CN(Cc2ccco2)C(=O)c2ccc(F)cc2)cc1	inactive: -13.1%
COc1ccccc1CNC(=O)CCC(=O)N1Cc2ccccc2Oc2ncccc21	inactive: -0.0545%
Cc1oc(-c2ccccc2Cl)nc1CS(=O)(=O)CC(=O)NC(C)CCc1ccccc1 (stereo not given)	inactive: 6.21%
COc1ccc(C(=O)Nc2nc3nc(C)c(Cl)c(=O)n3[nH]2)cc1	inactive: -1.1%
Cc1ccc2nc(Cl)c3cc(C(=O)NC4CCCCC4)sc3c2c1	inactive: -19.6%

Structure (SMILES)	activity change, negative = inhibition
COc1ccc(OC)c(NC(=O)C(NS(=O)(=O)c2ccc3c(c2)CCCC(=O)N3)C(C)C)c1 (stereo not given)	inactive: 0.253%
COc1ccc(NC(=O)CC2C(=O)N(c3cccc(OC)c3)C(=O)N2Cc2cccnc2)cc1 (stereo not given)	inactive: 0.542%
CCOC(=O)c1ccc(NC(=O)c2nsc3ccccc23)cc1	inactive: -3.86%
CN1CCc2nc3sc(C(=O)Nc4c(F)cccc4F)c(N)c3cc2C1	inactive: -5.37%
CCOc1ccc(NC(=O)Cn2c(=O)c(CNc3ccc(OC)cc3)cc3ccc(OC)cc32)cc1	inactive: -3.8%
Cc1ccc(-c2cnc(NCc3c(F)cccc3Cl)n2C)cc1	inactive: -25.6%
CCOC(=O)c1cc(S(=O)(=O)N2CCN(c3cc(Cl)ccc3C)CC2)[nH]n1	inactive: 0.885%
CCc1ccc(OCC(=O)Nc2c(C(=O)c3ccccc3)oc3ccccc23)cc1	inactive: 12%
Cc1cc(=O)n2nc(N3CCC(C(=O)NCc4ccccc4Cl)CC3)sc2n1	inactive: 0.527%
Cc1nc(-c2cccc(S(=O)(=O)N3CCC(C(=O)NCc4ccccc4)CC3)c2)no1	inactive: -3.65%
Cc1ccccc1NC(=O)CCc1c(C)nc2c(c1C)c(=O)n(C)c(=O)n2C	inactive: -0.0801%
CCCN(C(=O)Cn1cnc2sc(C)c(S(=O)(=O)N3CCN(c4ncccn4)CC3)c2c1=O)c1cccc(C)c1	inactive: 1.48%
COc1cccc(NC(=O)c2nnn(Cc3cccc(C(F)(F)F)c3)c2N)c1	inactive: -16.2%
COc1ccc(NS(=O)(=O)c2ccc3c(c2)oc(=O)n3C)cc1Cl	inactive: -2.34%
COc1ccc(OC)c(S(=O)(=O)Nc2ccc3[nH]c(=O)[nH]c3c2)c1	inactive: -1.53%
Cc1cccc(CN2C(=O)c3ccccc3S(=O)(=O)c3ccc(C(=O)N4CCCC4)cc32)c1	inactive: -4.75%
CCn1ccc2cc(S(=O)(=O)N3CCCN(C(=O)Nc4ccc(C)cc4)CC3)ccc21	inactive: -4.87%
Cc1cc(C)cc(N(C)S(=O)(=O)c2nnc(NC(=O)COc3ccc(Cl)cc3)s2)c1	inactive: 5.23%
CC(=O)c1cccc(NC(=O)CN2C(=O)CN(C)C(=O)c3ccccc32)c1	inactive: -2.51%
Cc1cccc(Cn2c(-c3cccs3)nc3ccccc32)c1	inactive: -12.7%
Cn1c(=O)c2c(nc(SCC(=O)Nc3ccc(F)cc3)n2Cc2ccc(Cl)cc2)n(C)c1=O	inactive: 1.01%
CCOc1ccc(Cn2c(CNS(=O)(=O)c3cccs3)nc3cccnc32)cc1	inactive: -7.31%
Cc1ccc(N2CCN(c3cc(C)nc4c(-c5ccc(Cl)cc5)c(C)nn34)CC2C)cc1 (stereo not given)	inactive: 4.65%
NC(=O)Cn1c(=O)n(-c2ccc(F)c(Cl)c2)c(=O)c2sc3ccccc3c21	inactive: -19.3%

Structure (SMILES)	activity change, negative = inhibition
CCc1nc(SCc2cc(=O)c3cc(F)ccc3[nH]2)n[nH]1	inactive: 0%
CCOc1ccc(NC(=O)c2ccc3c(c2)c(C)c(C)n3Cc2ccc(F)cc2)cc1	inactive: -1.21%
Cc1cn2c(=O)c(S(=O)(=O)NC(C)c3ccccc3)c(C)nc2s1 (stereo not given)	inactive: -2.72%
Cc1ccc(NC(=O)Cn2ncc3c4ccccc4n(Cc4ccccc4)c3c2=O)cc1Cl	inactive: -0.953%
Cc1ccc(C)c2sc(N3CCN(C(=O)c4ccco4)CC3)nc12	inactive: -3.58%
COc1ccc(N2CCN(C(=O)c3c(C)oc4nc(C)nc(N5CCCC5)c34)CC2)cc1	inactive: -1.19%
Cc1ccc(N(C)S(=O)(=O)c2c(-c3ccccc3)csc2C(=O)O)cc1	inactive: -6.23%
Cc1cc2nc(-c3cccc(NC(=O)COc4ccc(C(C)C)cc4)c3)oc2cc1C	inactive: -1.4%
COc1ccc(-c2nc(C)c(CCNC(=O)c3cccs3)s2)cc1	inactive: -6.47%
Cc1ccccc1-c1nnc(SCC(=O)N2CCCc3ccccc32)o1	inactive: -20.8%
CCCNC(=O)c1c(NC(=O)c2ccccc2F)sc2c1CCCCC2	inactive: -13.4%
Cc1nc(-c2ccc(S(=O)(=O)Nc3ccc(OC(F)(F)F)cc3)cc2)co1	inactive: -8.07%
CC(C)c1ccc(N2C(=O)CSC23C(=O)N(Cc2ccccc2F)c2ccccc23)cc1 (stereo not given)	inactive: 1.99%
Cc1ccc(NC(=O)N2CCC(CN3CCCCCC3)CC2)c(Cl)c1	inactive: -1.65%
Cc1cccc(C(=O)OCc2cc(=O)n3nc(C4CC4)sc3n2)c1	inactive: -1.28%
Cc1ccc(-c2nc(C(=O)Nc3cccc(C#N)c3)c3n2CCCCC3)cc1	inactive: -22.8%
COc1ccc(-c2nc(SCC(=O)Nc3ccc4c(c3)OCO4)c(-c3ccc(F)cc3)[nH]2)cc1OC	inactive: -11%
O=C1c2ccccc2C(=O)C1(c1ccccc1)N1CCN(c2cccc(C(F)(F)F)c2)CC1	inactive: 0.751%
CCOc1ccccc1NC(=O)CCc1nc(-c2cccc(C)c2)no1	inactive: 4.81%
CC(C)Oc1ccc(CNS(=O)(=O)c2csc(C(N)=O)c2)cc1	inactive: -21.3%
Cc1nc2nncn2c(Nc2ccc(F)cc2)c1C	inactive: -19%
COc1ccc(Cl)cc1NC(=O)c1cc2ccccn2n1	inactive: -1.12%
CCC(=O)N1CCc2cc(S(=O)(=O)NCCC(=O)NCc3ccc(OC)cc3)ccc21	inactive: -5.21%
